The values below come from the supplement of paper PMC7726561.

In all, about 1,400 sequences were measured (“thermal melting temperature (Tm) of peptide-HLA complex”: median about 60, lowest 2% from about 45 on). Some of the results follow.
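Also: cell lysates heated 10 min at 37–73 °C, remaining pHLA pulled down with pan-class I antibody, peptides quantified by DIA-MS versus 37 °C, Tm where half the complex is lost.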

The target of this assay is HLA-B*07:02. Description: thermal melting temperature (Tm) of peptide-HLA complex; higher = more thermostable pHLA complex. Particulars: C1R-B*07:02.
TPSSRPASL came in with a thermal melting temperature of 56 °C. For APSTPRITTF the value was 60.9 °C; for HPRTSITVVL, 58 °C.

Take HPDQAQAIL: the thermal melting temperature is 53.4 °C.

With QPMNVMTQSF, the thermal melting temperature amounted to 57.4 °C. For AVRQSVVVL the value was 58.9 °C. The result for KPVIPAAAL reads 61.1 °C; that for QLRLPGQQL, 52.5 °C; that for VPRAAFLSPL, 63.6 °C. The result for IPRVVQEGDVL reads 63 °C. For the sequence HPINPRVAL, the thermal melting temperature worked out at 58.9 °C. FPHPVNQVTF yielded a thermal melting temperature of 59.5 °C. In turn, TPSERITSL returned a thermal melting temperature of 57.3 °C. The result for FPRFSPVL reads 62.5 °C; that for APRTVALTAL, 62.9 °C. The result for LPSSGRSSL reads 57.9 °C; that for QPSPARAPAEL, 58.4 °C; that for SPDKIPWSAL, 55.7 °C.

Sequence LPQKAGGFL returned a thermal melting temperature of 60.3 °C. APRPAGSYL returned a thermal melting temperature of 61.8 °C. Take EPAFPHTDL: the thermal melting temperature worked out at 58.6 °C. SPDSNRVTGI gave a thermal melting temperature of 56.1 °C.

RPQGGQDIL returned a thermal melting temperature of 57.9 °C. The result for SPRQTLEL reads 57.8 °C. For SPWADNTAL the value was 62.1 °C; for SPRPPAEGF, 55.8 °C; for APLPDGRSL, 58.4 °C.

Regarding VPDAHKDHAL, the thermal melting temperature was 67.1 °C. For YPHEPTAVF the value was 63.8 °C. The result for SPRSPSTTYL reads 58.8 °C; that for VPRSASVLL, 60.1 °C.

On to SPRLSLLYL, for which the thermal melting temperature was found to be 63.4 °C. Sequence KPMEGNFEEI had a thermal melting temperature of 58.1 °C. The result for APFLRQEFI reads 63 °C; that for APVQRPKL, 58.6 °C; that for KPINFSVIL, 61 °C.

Sequence KMLTFLML registered a thermal melting temperature of 61.7 °C. The result for MPRTGNGPMSV reads 50.3 °C. In turn, GPRTAALGL showed a thermal melting temperature of 61.3 °C. On to FIRNRTLQL, for which the thermal melting temperature was found to be 61.5 °C.

The sequence SPHDISNVL came in with a thermal melting temperature of 60.1 °C. The result for LPRNEADEL reads 56.8 °C. RPALPSTQQL showed a thermal melting temperature of 57.6 °C. For SPNAIFKAL the value was 62.4 °C. For YPNFAGPHAAL the value was 57.9 °C; for MPRGVVVTL, 61.3 °C; for TPISRLVAL, 61.8 °C. The result for LPEAERNLL reads 60.7 °C. In turn, VPPQNPRPSL displayed a thermal melting temperature of 54.5 °C. For LPRTAISEL the value was 62 °C; for APGPPGRSML, 60 °C; for IPRPEVQAL, 54.1 °C. The result for RVREIIINAV reads 57 °C; that for TPDTGRILSKL, 60.6 °C; that for YPRAQLEVSAL, 61.5 °C.

Sequence LPSASHFSQL gave a thermal melting temperature of 60.4 °C.
